Measurements: publication PMC4336329 (PLoS ONE, 2015)
Out of some 310,000 compounds screened, about 14,000 (4.5%) showed an effect of 50% or more. Effects have a minus sign here. This is one part of the list.

Biological target: human ether-à-go-go-related gene (hERG) potassium channel (human, UniProt Q12809)
Experiment: primary screen, population patch clamp on CHO cells stably expressing hERG
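Also: peak tail current of the secondary pulse compared with the same well before compound.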

Sequence of human ether-à-go-go-related gene (hERG) potassium channel (Q12809 whole entry, looked up): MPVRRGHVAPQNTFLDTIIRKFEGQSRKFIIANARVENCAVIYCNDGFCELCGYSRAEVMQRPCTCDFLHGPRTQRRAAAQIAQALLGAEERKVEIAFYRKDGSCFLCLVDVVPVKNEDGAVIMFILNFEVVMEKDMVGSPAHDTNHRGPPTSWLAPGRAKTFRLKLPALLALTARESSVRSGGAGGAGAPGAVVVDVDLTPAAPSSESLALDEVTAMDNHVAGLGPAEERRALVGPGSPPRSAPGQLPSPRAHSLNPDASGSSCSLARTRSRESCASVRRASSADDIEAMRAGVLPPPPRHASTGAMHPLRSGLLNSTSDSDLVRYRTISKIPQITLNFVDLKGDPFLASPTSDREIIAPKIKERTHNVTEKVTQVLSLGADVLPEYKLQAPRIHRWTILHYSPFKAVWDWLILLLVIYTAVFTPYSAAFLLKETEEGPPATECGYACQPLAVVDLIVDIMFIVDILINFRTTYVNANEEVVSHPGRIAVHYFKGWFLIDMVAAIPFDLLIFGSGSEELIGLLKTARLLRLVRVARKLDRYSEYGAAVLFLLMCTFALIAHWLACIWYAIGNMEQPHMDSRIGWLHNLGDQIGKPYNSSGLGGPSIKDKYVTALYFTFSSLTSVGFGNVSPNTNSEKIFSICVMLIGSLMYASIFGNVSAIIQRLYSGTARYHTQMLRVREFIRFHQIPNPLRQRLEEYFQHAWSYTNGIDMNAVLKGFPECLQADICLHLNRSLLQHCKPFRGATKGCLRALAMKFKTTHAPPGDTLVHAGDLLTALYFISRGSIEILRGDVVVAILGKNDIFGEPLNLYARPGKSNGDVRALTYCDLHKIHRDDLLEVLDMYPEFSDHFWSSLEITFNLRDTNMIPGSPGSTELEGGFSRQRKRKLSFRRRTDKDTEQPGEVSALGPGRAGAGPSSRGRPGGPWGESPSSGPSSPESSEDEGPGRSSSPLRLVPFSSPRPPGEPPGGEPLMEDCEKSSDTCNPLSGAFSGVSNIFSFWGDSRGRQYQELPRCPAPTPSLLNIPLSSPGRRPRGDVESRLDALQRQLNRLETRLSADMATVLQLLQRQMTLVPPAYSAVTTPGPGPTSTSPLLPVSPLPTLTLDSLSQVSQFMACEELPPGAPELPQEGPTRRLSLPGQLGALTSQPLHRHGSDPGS

SMILES | hERG current change (%, negative = inhibition) at 10uM [%]
COc1ccc(OC)c(NC(=O)CN(c2ccc(C(C)C)cc2)S(=O)(=O)c2c(C)noc2C)c1 | 2.13
COc1ccc(NC(=O)N2CCCC(c3ccccc3)C2)cc1 (stereo not drawn) | -19.4
CCC(=NCC1CCCO1)c1c(O)n(-c2ccccc2)c(=O)[nH]c1=O (stereo not drawn) | -6.64
O=C(NCC1CCCO1)c1sc2cc(Cl)ccc2c1Cl (stereo not drawn) | -6.32
CCC(C)(C)NC(=O)c1ccc2c(c1)OCCO2 | 14.8
O=C(COc1cccc2cccnc12)Nc1ccccc1 | -18.5
CCCCc1nnc(SCC(=O)Nc2nccs2)n1CC | 4.93
CN(C)c1ccc(/C=C2\CCCc3c2nc2ccccc2c3C(=O)O)cc1 | 15.3
COc1ccc(Br)c(C(=O)Nc2ccc(F)cc2)c1 | -0.956
O=C(CSc1nnc2n(C3CCCC3)c(=O)c3ccccc3n12)N1CCCCCC1 | -51.1
O=C(Nc1ccc(Cl)c(Cl)c1)OCc1cnc(Cl)s1 | -1.93
CCOC(=O)C1=C(C)N(C)C(=S)NC1c1ccc(Cl)cc1 (stereo not drawn) | -21.5
COc1ccc(CC(=O)Nn2c(-c3ccccc3)nc3ccccc3c2=O)cc1 | -8.84
CN(C)C(=O)c1ccccc1Sc1ccc(Cl)cc1Cl | -70.4
CC(C)(C)NC(=O)C(=O)NNC(=O)C12CC3CC(CC(C3)C1)C2 | 14.6
COC(=O)c1ccc(COC(=O)C2CC(O)CN2S(=O)(=O)c2ccc([N+](=O)[O-])cc2)cc1 (stereo not drawn) | -34.7
Nc1nc(SCC(=O)Nc2ncc(C(F)(F)F)cc2Cl)n[nH]1 | 11.9
CC(CCc1ccccc1)NC(C)C(O)c1ccc(O)cc1.Cl (stereo not drawn) | -65.3
CCOP(=O)(OCC)OCC | 16.9
Cc1cc(O)ccc1N/C=C(\C#N)c1nc2ccccc2o1 | 10.2
O=C(c1cc2ncc(Br)cn2n1)N1CCOCC1 | 12.1
COc1ccc(-c2cc(CCCC(=O)NCCc3cc(OC)ccc3OC)no2)cc1 | -6.49

SMILES | hERG current change (%, negative = inhibition) at 10uM [%]
Cc1ccc2nc(C)cc(N/N=C/c3cccnc3)c2c1 | -4.35
Cc1ccccc1CSc1n[nH]c(NS(=O)(=O)c2ccccc2)n1 | 10.3
Cc1ccc(-c2nnc(-c3ccccc3Br)o2)cc1 | -5.68
O=C(C[n+]1cccc(NC(=O)c2ccccc2)c1)c1cccc([N+](=O)[O-])c1.[Br-] | -76.3
CCOC(=O)N1CCC(N2C(=O)c3ccc(C(=O)Nc4cccc(OC)c4)cc3C2=O)CC1 | 10.6
COc1ccc(NC(=O)c2cc(-c3ccc(C)cc3)on2)cc1OC | 19.4
CCOc1ccc(S(=O)(=O)N(CC)CC(=O)N2CCOCC2)cc1C | 6.73
COc1ccc(N(C)S(=O)(=O)c2cccc(C(=O)NC3CCCC(C)C3C)c2)cc1 (stereo not drawn) | -35
COc1ccc(O)c(CN2CCN(CCc3ccccc3)C(CCO)C2)c1 (stereo not drawn) | -54.6
CCCn1c(Sc2nc3c(c(=O)[nH]c(=O)n3C)n2CCC)nc2c1c(=O)[nH]c(=O)n2C | 6.39
Cc1ccc(S(=O)(=O)N2CCN(C(=O)COC(=O)CCCOc3ccccc3)CC2)c(C)c1 | -8.13
CN(C)c1cc[n+](CC(=O)c2cccs2)cc1.[Cl-] | 9.45
O=[N+]([O-])c1ccc(Cl)cc1Sc1cccc2cccnc12 | 6.39
COc1ccccc1N(C)S(=O)(=O)c1ccc(C)c(C(=O)NCc2ccccn2)c1 | -16.5
c1cc2c3c(cccc3c1)NC1(CCC3(CC1)Nc1cccc4cccc(c14)N3)N2 | 17.8
COc1ccc(NS(=O)(=O)c2cccc(C(=O)NCC3(N(C)C)CCCCC3)c2)cc1 | -40.6
COCCCn1c(-c2ccco2)nc2ccccc2c1=O | -16
Cc1cc(C)cc(N2C(=O)NC(=O)/C(=C\c3cccn3-c3ccccc3)C2=O)c1 | 2.96
CC(C)NC(=S)NN=C1CCC(c2ccccc2)CC1 (stereo not drawn) | 12.3
COc1ccc(NC(=O)Nc2nc3c(s2)CCCC3)cc1 | -26.8
O=C(COC(=O)c1ccc(F)cc1F)NC1CC1 | 23
O=C1N(Cc2cccc(Cl)c2)C[C@@H]2C[C@@H](c3ccccn3)N3CCC[C@@]123 | -18.5

SMILES | hERG current change (%, negative = inhibition) at 10uM [%]
O=C(Nc1cccc([N+](=O)[O-])c1)Nc1ccc(Cl)cn1 | 10.8
CCNC(=S)Nc1cc(OC)c(NC(=O)c2ccco2)cc1OC | 1.21
CCOC(=O)c1c(C)oc2ccc(OS(C)(=O)=O)cc12 | 1.04
Cc1ccc(CONC(=O)c2cccc([N+](=O)[O-])c2)cc1 | -23.5
Cc1ccc(N2CC(C(=O)Nc3nnc(SCC(=O)NCC4CCCO4)s3)CC2=O)cc1C (stereo not drawn) | -1.56
O=c1c2c(nc3c(-c4ccc(Cl)cc4)c[nH]n13)CCCC2 | -19.9
CC1=C(C(N)=O)C(c2ccc(Br)cc2)n2nc(CCCO)nc2N1 (stereo not drawn) | 21.9
Cc1ccc(Cn2c(=O)c3ccccc3n3c(CCC(=O)NCCN4CCOCC4)nnc23)cc1 | -19.5
Cc1ccc(CN2CC(C(=O)N3CCN(S(=O)(=O)c4ccc(C(C)C)cc4)CC3)CC2=O)cc1 (stereo not drawn) | -30
O=C(/C=C/c1ccc(Cl)cc1)Nc1ccc(Br)cn1 | 10.5
CC(C)(C)c1ccc(NC(=O)NC2CCCc3ccccc32)cc1 (stereo not drawn) | 12.7
O=C(NCc1ccccc1)Nc1cc(Cl)ccc1Cl | 17.4
C#CC[N+]1(C)[C@@H]2CC[C@H]1CC(OC(=O)C(CO)c1ccccc1)C2.[Br-] (stereo partly drawn) | 8.31
CSc1ccc(/C=N/NC(=O)c2cc(O)cc(O)c2)cc1 | 8.66
Cc1cc([N+](=O)[O-])ccc1NCc1ccco1 | -11
O=C(Nc1nnc(S(=O)(=O)N2CCOCC2)s1)c1ccccc1Cl | -3.08
COc1cc2cc(CCCOC(=O)c3ccc4c(c3)OCO4)oc(=O)c2cc1OC | -4.11
COc1ccccc1NC(=O)Nc1ccc2c(c1)CCC2 | -0.142
N/C(=N\OC(=O)c1cc(-c2ccccc2)nc2ccccc12)c1ccc(Cl)cc1 | -3.98
CSc1cccc(NC(C)C(=O)NCc2ccccc2)c1 (stereo not drawn) | 2.74
O=C(COc1ccc([N+](=O)[O-])cc1Cl)Nn1cnnc1 | 8.56
CCCC(c1nnnn1C(C)(C)CC)N1CCN(C(=O)c2ccco2)CC1.Cl (stereo not drawn) | -54

SMILES | hERG current change (%, negative = inhibition) at 10uM [%]
Cc1cc(C)n2nc(SCCOc3ccc(F)cc3)nc2n1 | -68.8
CCN=c1scc(C)n1/N=C/c1cc(Br)c(O)c(OC)c1 | 3.65
CCC(=O)N1CCc2cc(S(=O)(=O)CCC(=O)Nc3ccc(C)cn3)ccc21 | -2.45
CCN(C(=O)COC(=O)C1CCN(S(=O)(=O)c2ccc(C)c(C)c2)CC1)C1CCS(=O)(=O)C1 (stereo not drawn) | -7.82
COc1ccccc1NS(=O)(=O)c1cc(NC(=O)c2ccc3ccccc3n2)ccc1Cl | 2.78
O=c1cc(-c2ccccc2F)nc(-c2ccccc2F)o1 | 9.7
COc1ccc(-n2c(O)c(C(C)=NCCc3c[nH]c4ccccc34)c(=O)[nH]c2=O)cc1 | 14.6
S=c1nc(-c2cc(Cl)cc(Cl)c2)[nH][nH]1 | 31.9
O=C(Nc1cc(C(F)(F)F)ccc1Cl)C(Sc1nnc(-c2cccs2)o1)c1ccccc1 (stereo not drawn) | 20.2
CN(C)S(=O)(=O)c1ccc(Cl)c(C(=O)Nc2nc3ccccc3[nH]2)c1 | 9.62
O=C(O)CCC(=O)N1CCc2cc(S(=O)(=O)NC3CCCc4ccccc43)ccc21 (stereo not drawn) | -5.02
O=C(COC(=O)CNC(=O)c1ccccc1)Nc1ccc(F)c([N+](=O)[O-])c1 | -18.3
O=C(O)C(F)(F)F.O=C1C(Cc2ccccc2)Nc2ncnc(N3CCN(c4ccccc4)CC3)c2N1Cc1ccccc1 (stereo not drawn) | -0.882
CCOC(=O)c1c(NC(=O)CSc2nc3cccnc3n2C)sc(C(C)=O)c1C | -10.2
CC(C)(C)C(=O)Nc1cc(S(=O)(=O)N2CCCCC2)ccc1N1CCCCC1 | -3.26
CCCSCCCNC(=O)Cn1cc2c(n1)CCCCC2 | 7.82
CCc1ccc(Nc2nnc(SCC(=O)Nc3ccc(C(=O)O)cc3)s2)cc1 | 8.42
Cc1ccnc(NS(=O)(=O)c2ccc(NC(=O)C3CCCO3)cc2)n1 (stereo not drawn) | 2.9
CC(C)Cn1c(-c2cc(Br)ccc2F)nc2c1c(=O)[nH]c(=O)n2CC(C)C | -4.07
CC(=O)Nc1cccc(NC(=O)Nc2ccc(F)cc2F)c1 | 15.3
Cc1ccccc1NC(=O)COC(=O)/C=C/c1cccc(C(F)(F)F)c1 | -4.07
